“And” between values parts separate entries of the source, which are not always exact repeats. Identical values can stand only once. Whole data set: some 5,300 compounds, median “PER2::LUC luminescence relative to vehicle control” near 0.96, cut for the highest 2% near 1.3. The list shows a part of the results.
System: mPer2Luc MEF
Test: PER2::LUC luminescence relative to vehicle control (fold of vehicle); higher = higher PER2::LUC reporter signal
Settings: 10 µM
In short: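 Each value gives PER2::LUC luminescence as fold of vehicle control, measured with the ONE-Glo luciferase assay system in mouse embryonic fibroblasts carrying the mPer2Luc reporter. Cells grown in DMEM with 10% FBS at 37 °C and 5% CO2 were seeded at ~3000 per well in 384-well plates. Library compounds were added at 10 μM 48 h later, and readings were taken 24 h and 30 h after treatment.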

Compound	PER2::LUC luminescence (time after treatment 24 h)	PER2::LUC luminescence (time after treatment 30 h)
NC1CCN(O)C1=O (single isomer, unassigned; (-))	1.08	1.01
Cc1cc(-n2cccc2)c(S(C)(=O)=O)cc1C(=O)N=C(N)N	1.17	0.995
C[C@]12CC[C@@H]3c4ccc(O)cc4CC[C@H]3[C@@H]1CCC2=O	1.08 and 1.09	1.23 and 1.06
CC(C)[C@H](NC(=O)[C@H](CC(=O)O)NC(=O)[C@H](CCCCN)NC(=O)[C@@H](N)CCCN=C(N)N)C(=O)N[C@@H](Cc1ccc(O)cc1)C(=O)O	1.12	0.97
CC1CN(S(=O)(=O)c2cccc3cnccc23)CCN1 (stereo not drawn)	0.994	1.05
CCOC(=O)C1=C[C@]2(CC)CCCN3CCc4c(n1c1ccccc41)[C@@H]32	1.03 and 1.04	0.999 and 0.966
CN1CCC(COc2cnc(-c3cccc(Cn4nc(-c5cccc(C#N)c5)ccc4=O)c3)nc2)CC1	0.706	0.744
Cc1cccc(CN2CCN(C(c3ccccc3)c3ccc(Cl)cc3)CC2)c1 (stereo not drawn)	1.07 and 0.753	0.997 and 0.864
CCOC(OCC)P(=O)(O)CCCNCc1ccc(Cl)c(Cl)c1	0.984	0.976
O=C(O)CCC(=O)Nc1ccc(S(=O)(=O)Nc2nccs2)cc1	0.666	0.939
O=C(O)CCn1c2c(c3ccccc31)C[C@H](NS(=O)(=O)c1ccc(F)cc1)CC2	1.08	0.943
COc1cnc(NS(=O)(=O)c2ccc(N)cc2)nc1	0.926	1
CC(C)Cc1ccc(C(C)C(=O)O)cc1 (racemic)	1.12 and 0.926	0.938 and 0.803
O=NN(CCCl)C(=O)NC1CCCCC1	0.824	0.938
CNCCC(Oc1ccccc1OC)c1ccccc1 (stereo not drawn)	1.01	0.955
CCCCC(C)(O)C/C=C/[C@H]1[C@H](O)CC(=O)[C@@H]1CCCCCCC(=O)OC (mixture of isomers)	1.04	1.02
COc1ccccc1O	0.97	0.878
CC1CNCCN1S(=O)(=O)c1cccc2cnccc12 (stereo not drawn)	1.13	0.909
C/C=N/N(C)C=O	1.03	0.928
Cn1c(=O)cc(N2CCC[C@@H](N)C2)n(Cc2ccccc2C#N)c1=O	0.943	0.98
CCOC(=O)CCCCCCCCCCCN(C)C(=O)CO[C@H](C)[C@@H](C)OCC(=O)N(C)CCCCCCCCCCCC(=O)OCC	1.2	1.08

Compound	PER2::LUC luminescence (time after treatment 24 h)	PER2::LUC luminescence (time after treatment 30 h)
CCOc1ccc(-c2nc(-c3cccc4c3CCC4NCCO)no2)cc1OCC (stereo not drawn)	0.853	0.942
O=c1c2cc(O)c(O)cc2oc2cc(O)c([C@@H]3O[C@H](CO)[C@@H](O)[C@H](O)[C@H]3O)c(O)c12	1.05	0.993
C=C1C[C@]23C[C@@]1(O)CC[C@H]2[C@@]12C=C[C@H](O)[C@@](C)(C(=O)O1)[C@H]2[C@@H]3C(=O)O	1.07 and 0.983	1.07 and 0.929
Cc1nnc(C(C)C)n1C1C[C@H]2CC[C@@H](C1)N2CC[C@H](NC(=O)C1CCC(F)(F)CC1)c1ccccc1 (stereo in doubt)	0.968	0.934
CCOc1cc(C(C)(C)C)ccc1C1=N[C@@](C)(c2ccc(Cl)cc2)[C@@](C)(c2ccc(Cl)cc2)N1C(=O)N1CCN(CC(=O)N2CCOCC2)CC1	0.78	0.651
COc1ccc(-c2cc(=O)c3c(O)cc(O[C@@H]4O[C@H](CO[C@@H]5O[C@@H](C)[C@H](O)[C@@H](O)[C@H]5O)[C@@H](O)[C@H](O)[C@H]4O)cc3o2)cc1O	0.877	1.25
COc1cc(Nc2ncc(F)c(Nc3ccc4c(n3)N(COP(=O)(O)O)C(=O)C(C)(C)O4)n2)cc(OC)c1OC	0.591 and 0.225	0.424 and 0.163
N#Cc1cc2[nH]c(=O)c(=O)[nH]c2cc1[N+](=O)[O-]	0.979	0.918
CC1(C)[C@H]2CC[C@]1(CS(=O)(=O)O)C(=O)C2=Cc1ccc(C=C2C(=O)[C@@]3(CS(=O)(=O)O)CC[C@@H]2C3(C)C)cc1	0.559	1.03
NC(=O)NC(=O)Cc1ccccc1	0.87 and 0.95	1.19 and 0.957
CN1CC2c3ccccc3Oc3ccc(Cl)cc3C2C1 (stereo not drawn)	0.815 and 0.759 and 0.706	0.713 and 0.621 and 0.662
COc1ccc(C(=O)c2ccc(C)cc2)c(O)c1	1.02 and 1.29	1.55 and 1.57
CN1[C@@H](CC(=O)c2ccccc2)CCC[C@H]1C[C@H](O)c1ccccc1	0.975 and 0.85 and 0.873	0.939 and 0.881 and 0.759
CCC(CC)CC1(C(=O)Nc2ccccc2SC(=O)C(C)C)CCCCC1	1.1	0.999
OC[C@@H](O)[C@@H](O[C@@H]1O[C@H](CO)[C@H](O)[C@H](O)[C@H]1O)[C@H](O)[C@@H](O)CO	1.02 and 0.968 and 0.877	1.01 and 1.07 and 0.932
c1ccc2[nH]c(-c3cscn3)nc2c1	1.41	1.35
Cn1cc(-c2ccc3nnc(C(F)(F)c4ccc5ncccc5c4)n3n2)cn1	0.849	0.896
CC(=O)C(C)=O	1.03	0.918
COc1cc(C(O)C(=O)O)ccc1O (racemic)	0.883	0.755
COc1ccc(CNC(=O)c2cc(-c3cncc(C)c3)ncc2-c2nccs2)nc1OC	0.967	0.903
CC(C)(C)NC(=O)N[C@H](C(=O)N1C[C@H]2[C@@H]([C@H]1C(=O)NC(CC1CCC1)C(=O)C(N)=O)C2(C)C)C(C)(C)C (stereo partly drawn)	0.933	0.933

Compound	PER2::LUC luminescence (time after treatment 24 h)	PER2::LUC luminescence (time after treatment 30 h)
CSc1nc(N)c2ncn([C@@H]3O[C@H](COP(=O)(O)OP(=O)(O)OP(=O)(O)O)[C@H](O)C3O)c2n1 (stereo partly drawn)	1.05	1.1
C[C@H](C[C@H](N)C(=O)O)C(=O)O	1.07	0.884
CC(C)=CCC/C(C)=C/CC/C(C)=C/CC/C(C)=C/CC1=C(C)C(=O)c2ccccc2C1=O	1.01 and 0.917	1.08 and 0.933
COc1cc(O)c(C)c(O)c1	1.21	1.03
OCC(O)C(O)C(O)C(O)C(O)CO (stereo not drawn)	1.08	0.998
NOCC(=O)O	0.961	1.11
COc1cc2ncnc(Nc3ccc(O)cc3)c2cc1OC	0.787 and 0.711	0.688 and 0.622
C[C@H](CCC(=O)O)[C@H]1CC[C@H]2[C@@H]3CC[C@@H]4CCCC[C@]4(C)[C@H]3CC[C@]12C	1.01	1.2
C[C@]12CC[C@@H]3c4ccc(O)cc4CC[C@H]3[C@@H]1C[C@H](O)[C@@H]2O	1.07	0.987
O=C1CC2(CCCC2)CC(=O)N1CCNCC1COc2ccccc2O1 (stereo not drawn)	1.1 and 1.05	0.987 and 0.887
CCCCCCCC(=O)CCc1ccc(O)c(OC)c1	1.04	0.901
CC(=O)N[C@@H](Cc1ccccc1)C(=O)O	1.02	0.924
CO/N=C(\C(=O)N[C@@H]1C(=O)N2C(C(=O)O)=C(C[N+]3(C)CCCC3)CS[C@H]12)c1csc(N)n1	0.978	0.948
CCOC(=O)[C@H](CCc1ccccc1)N[C@@H](C)C(=O)N1CCC[C@H]1C(=O)O	1.28 and 0.941	0.823 and 1.04
Cn1nnnc1SCC1=C(C(=O)O)N2C(=O)[C@@H](NC(=O)[C@H](OC=O)c3ccccc3)[C@H]2SC1	0.886	1.12
COc1ccc(C(=O)c2ccccc2C(=O)O)c(O)c1	1.19	0.841
Cc1nc(N)sc1-c1ccnc(Nc2ccc(N3CCOCC3)cc2)n1	0.517	0.765
CCOc1ccc(C(=O)c2ccc(O)c(O)c2O)cc1	0.963	1.08
C[C@]12CC[C@@H]3c4ccc(O)cc4CC[C@H]3[C@@H]1C[C@@H](O)[C@@H]2O	0.915	0.96
CN(C)CCCO[C@@H]1[C@H]2OC(C)(C)O[C@H]2O[C@@H]1[C@H](O)CO	1.16	1.11
Cc1cccc2c3c(ccc12)C1=C(C(=O)C3=O)[C@@H](C)CO1	0.814	0.857

Compound	PER2::LUC luminescence (time after treatment 24 h)	PER2::LUC luminescence (time after treatment 30 h)
C[C@@H]1CN(CC(=O)Nc2ccc3c(c2)Cc2cccc(-c4cc(=O)cc(N5CCOCC5)o4)c2S3)C[C@H](C)O1	0.479	0.487
CCC[C@H](NC(=O)[C@@H]1[C@H]2CCC[C@H]2CN1C(=O)[C@@H](NC(=O)[C@@H](NC(=O)c1cnccn1)C1CCCCC1)C(C)(C)C)C(=O)C(=O)NC1CC1	0.895	0.882
CCC(C(=S)O[C@]12CCC[C@H](CC1)N2C)c1ccccc1 (stereo partly drawn)	0.715	0.77
Cc1noc(NS(=O)(=O)c2ccc(N)cc2)c1C	0.851	1.06
CCc1cccc2c3c([nH]c12)C(CC)(CC(=O)O)OCC3 (stereo not drawn)	1.02	1.11
CCCCC(=O)O[C@]1(C(=O)CO)CC[C@H]2[C@@H]3CCC4=CC(=O)CC[C@]4(C)[C@H]3[C@@H](O)C[C@@]21C	0.848	1.06
CC(=O)N1CCN(CCOc2ccc(C3CCN(C4=Nn5c(nnc5C(F)(F)F)CC4)CC3)cc2)CC1	0.415	0.434
O=C1N=C(N2CCOCC2)CN1c1ccc(Cl)cc1	1.13	1.15
C=CC(=O)N1CCC[C@@H](n2nc(-c3ccc(Oc4ccccc4)cc3)c3c(N)ncnc32)C1	0.757	0.558
O=C(O)c1ccccc1C(=O)Nc1ccc(-c2ccccc2)cc1	1.14	1.05
CC(Oc1c(Cl)cccc1Cl)C1=NCCN1 (stereo not drawn)	0.875	0.888
CC1=C(CC(=O)O)c2cc(F)ccc2/C1=C\c1ccc([S+](C)[O-])cc1 (stereo not drawn)	0.878	0.879
C=CC(=O)Nc1ccc2ncnc(Nc3ccc(OCc4cccc(F)c4)c(Cl)c3)c2c1	0.392	0.325
CO[C@H]1[C@H](O)[C@@H](O)[C@H](O)[C@H](O)[C@H]1O	1.11	1.03
CN(C)CCC(c1ccc(Br)cc1)c1ccccn1 (racemic)	0.867	0.672
Cc1ccccc1N1C(=O)c2cc(S(N)(=O)=O)c(Cl)cc2NC1C (stereo not drawn)	0.886	0.885
CCCn1c(=O)c2[nH]c(-c3ccc(S(=O)(=O)O)cc3)nc2n(CCC)c1=O	1.06	0.998
Cc1cc(-n2c(=O)[nH]c(=O)n(C)c2=O)ccc1Oc1ccc(SC(F)(F)F)cc1	0.894	0.751
O=C1N(c2ccccc2)c2ccccc2C1(Cc1ccncc1)Cc1ccncc1	0.547 and 0.987	0.86 and 1.15
[I-].[K+]	1.07	1.05
CC(C)COC(=O)c1ccc(N)cc1	1.34	1.43

From the supplement of paper PMC9334596
